The list shows a part of the results.
B1: PhoQ; a variant is named by its letters at X, in order, P23837 (parent)
chain: MKKLLRLFFPLSLRVRFLLATAAVVLVLSLAYGMVALIGYSVSFDKTTFRLLRGESNLFYTLAKWENNKLHVELPENIDKQSPTMTLIYDENGQLLWAQRDVPWLMKMIQPDWLKSNGFHEIEADVNDTSLLLSGDHSIQQQLQEVREDDDDAEMTHSVAVNVYPATSRMPKLTIVVVDTIPVELKSSYMVWSWFIYVLSANLLLVIPLLWVAAWWSLRPIEALAKEVRELEEHNRELLNPATTRELTSLVRNLNRLLKSERERYDKYRTTLTDLTHSLKTPLXXLQXXLRSLRSEKMSVSDAEPVMLEQISRISQQIGYYLHRASMRGGTLLSRELHPVAPLLDNLTSALNKVYQRKGVNISLDISPEISFVGEQNDFVEVMGNVLDNACKYCLEFVEISARQTDEHLYIVVEDDGPGIPLSKREVIFDRGQRVDTLRPGQGVGLAVAREITEQYEGKIVAGESMLGGARMEVIFGRQHSAPKDE

Variants of: B1
Test: enrichment ratio after two sorts for PhoP signalling (ratio (wild type AVST 3.29)); higher = more functional
Conditions: with PhoP (E. coli)

Row | Variant | enrichment ratio
1 | DQPK | ≤ 0.25
2 | YQVP | ≤ 0.25
3 | MQFP | ≤ 0.25
4 | SKYM | ≤ 0.25
5 | ESWQ | ≤ 0.25
6 | VREL | ≤ 0.25
7 | PFEW | ≤ 0.25
8 | YVNW | ≤ 0.25
9 | DNRE | ≤ 0.25
10 | TAWF | 5.36
11 | PRHT | ≤ 0.25
12 | SFVY | ≤ 0.25
13 | MQVN | ≤ 0.25
14 | MERD | ≤ 0.25
15 | EEIF | ≤ 0.25
16 | MDVE | ≤ 0.25
17 | YHDH | ≤ 0.25
18 | FMCF | ≤ 0.25
19 | MCCF | 4.87
20 | EMVN | ≤ 0.25
21 | DLMI | ≤ 0.25
22 | DMVY | ≤ 0.25
23 | MDLG | ≤ 0.25
24 | MKAN | ≤ 0.25
25 | PFDM | ≤ 0.25

Row | Variant | enrichment ratio
26 | NQNM | ≤ 0.25
27 | ANLA | 5.31
28 | KFWA | ≤ 0.25
29 | RPVC | ≤ 0.25
30 | DHYN | ≤ 0.25
31 | FYYT | ≤ 0.25
32 | KMHP | ≤ 0.25
33 | KGPG | ≤ 0.25
34 | ERRF | ≤ 0.25
35 | RTIK | ≤ 0.25
36 | WRRG | ≤ 0.25
37 | SQAW | ≤ 0.25
38 | VNKC | ≤ 0.25
39 | AHLM | 12.1
40 | IQHA | ≤ 0.25
41 | FVKP | ≤ 0.25
42 | EDKV | ≤ 0.25
43 | VALC | 5.37
44 | RKIH | ≤ 0.25
45 | IHIE | ≤ 0.25
46 | PDLA | ≤ 0.25
47 | HCYH | ≤ 0.25
48 | VVFA | ≤ 0.25
49 | MHGD | ≤ 0.25
50 | NPQG | ≤ 0.25

Row | Variant | enrichment ratio
51 | QYSH | ≤ 0.25
52 | DEAR | ≤ 0.25
53 | FLVQ | ≤ 0.25
54 | VNNC | ≤ 0.25
55 | RLKK | ≤ 0.25
56 | TDGM | ≤ 0.25
57 | SGVL | 8.84
58 | MFHD | ≤ 0.25
59 | HDHG | ≤ 0.25
60 | SECL | 18.7
61 | AFFW | ≤ 0.25
62 | LHAE | ≤ 0.25
63 | KLAC | ≤ 0.25
64 | PGTS | ≤ 0.25
65 | AIHW | ≤ 0.25
66 | QAIF | ≤ 0.25
67 | HWTT | ≤ 0.25
68 | PTFY | ≤ 0.25
69 | HWLH | ≤ 0.25
70 | QRMW | ≤ 0.25
71 | HFYP | ≤ 0.25
72 | NADP | ≤ 0.25
73 | PRIM | ≤ 0.25
74 | SEWT | 13.2
75 | FSKE | ≤ 0.25

Row | Variant | enrichment ratio
76 | IIVV | ≤ 0.25
77 | PDKD | ≤ 0.25
78 | HNWS | ≤ 0.25
79 | QAYC | ≤ 0.25
80 | FECQ | 3.31
81 | YLIL | ≤ 0.25
82 | PEPI | ≤ 0.25
83 | DPSI | ≤ 0.25
84 | FIMD | ≤ 0.25
85 | WYGM | ≤ 0.25
86 | SNFG | ≤ 0.25
87 | KEMG | ≤ 0.25
88 | KVVR | ≤ 0.25
89 | IMAA | ≤ 0.25
90 | QLVV | ≤ 0.25
91 | VNGT | ≤ 0.25
92 | PVTP | ≤ 0.25
93 | MPHS | ≤ 0.25
94 | VIHK | ≤ 0.25
95 | LFQH | ≤ 0.25
96 | PWVG | ≤ 0.25
97 | VKSP | ≤ 0.25
98 | QMPF | ≤ 0.25
99 | FLLQ | 0.481
100 | LYYF | ≤ 0.25

Row | Variant | enrichment ratio
101 | DLGH | ≤ 0.25
102 | LHKW | ≤ 0.25
103 | SFRL | ≤ 0.25
104 | YEWS | ≤ 0.25
105 | TGRQ | ≤ 0.25
106 | PMIM | ≤ 0.25
107 | FGHR | ≤ 0.25
108 | VLIS | ≤ 0.25
109 | TASK | 0.795
110 | GRED | ≤ 0.25
111 | NHRK | ≤ 0.25
112 | ARRS | ≤ 0.25
113 | GTWQ | ≤ 0.25
114 | HEKD | ≤ 0.25
115 | ARKH | ≤ 0.25
116 | SYGG | ≤ 0.25
117 | MFYY | ≤ 0.25
118 | MVVL | ≤ 0.25
119 | FFGF | ≤ 0.25
120 | NELE | ≤ 0.25
121 | HAKP | ≤ 0.25
122 | GWAH | ≤ 0.25
123 | AVAQ | ≤ 0.25
124 | RQMM | ≤ 0.25
125 | KDTL | ≤ 0.25

Row | Variant | enrichment ratio
126 | YHVV | ≤ 0.25
127 | VGLN | ≤ 0.25
128 | ASNT | ≤ 0.25
129 | WKTH | ≤ 0.25
130 | RVIV | ≤ 0.25
131 | YWLS | ≤ 0.25
132 | NLCE | ≤ 0.25
133 | VNPA | ≤ 0.25
134 | TTEG | ≤ 0.25
135 | LCVV | ≤ 0.25
136 | TTQR | ≤ 0.25
137 | MYPH | ≤ 0.25
138 | YDQM | ≤ 0.25
139 | GVMS | ≤ 0.25
140 | SWDM | ≤ 0.25
141 | HGAI | ≤ 0.25
142 | HNFF | ≤ 0.25
143 | QGWH | ≤ 0.25
144 | EFPL | ≤ 0.25
145 | QDLC | ≤ 0.25
146 | LNPM | ≤ 0.25
147 | KLSF | ≤ 0.25
148 | KTIK | ≤ 0.25
149 | WYWE | ≤ 0.25
150 | SLWH | ≤ 0.25

Row | Variant | enrichment ratio
151 | VLSY | 0.334
152 | ARLW | ≤ 0.25
153 | ITDC | ≤ 0.25
154 | LVPI | ≤ 0.25
155 | SFDY | ≤ 0.25
156 | LSTF | ≤ 0.25
157 | WRRP | ≤ 0.25
158 | RGGY | ≤ 0.25
159 | DNAS | ≤ 0.25
160 | QIGL | 1.32
161 | TPLV | ≤ 0.25
162 | EHSS | ≤ 0.25
163 | IGLD | ≤ 0.25
164 | AQII | 7.96
165 | MAFN | 10.5
166 | INWW | ≤ 0.25
167 | SHRK | ≤ 0.25
168 | QFCP | ≤ 0.25
169 | VART | ≤ 0.25
170 | VPYR | ≤ 0.25
171 | FGVD | ≤ 0.25
172 | TNHC | ≤ 0.25
173 | FFRH | ≤ 0.25
174 | LVPC | ≤ 0.25
175 | GRKL | ≤ 0.25

Row | Variant | enrichment ratio
176 | KGVW | ≤ 0.25
177 | DCLW | ≤ 0.25
178 | FDWC | ≤ 0.25
179 | GFDT | ≤ 0.25
180 | MMWK | ≤ 0.25
181 | PYNT | ≤ 0.25
182 | DWKI | ≤ 0.25
183 | FCFR | ≤ 0.25
184 | QYWG | 16.3
185 | LDDY | ≤ 0.25
186 | NSYE | ≤ 0.25
187 | HMLQ | ≤ 0.25
188 | HRDE | ≤ 0.25
189 | LVLP | ≤ 0.25
190 | RPGP | ≤ 0.25
191 | PSWR | ≤ 0.25
192 | QVDS | 1.54
193 | TESS | 15
194 | GDAN | ≤ 0.25
195 | RCCQ | ≤ 0.25

From a collection of fitness landscapes (doi:10.1126/science.1257360)
